# PubChem BioAssay AID411 (National Center for Advancing Translational Sciences (NCATS), 2006)
# Screen size: about 72,000 compounds; about 1,600 (2.2%) were called active. This list was built around the results that the source calls inconclusive (neither active nor inactive); the mix of calls is not that of the screen. The call rests on the fitted dose curve; in most records, active means well fitted inhibition curve with a large enough effect; inconclusive means small, poorly fitted or top-dose-only effect; inactive means flat fitted curve, though single readings scatter. Potencies of inconclusive entries are left out as doubtful fits.
# Target: Luciferin 4-monooxygenase (Photinus pyralis) (UniProt P08659)
# Experiment: qHTS Assay for Inhibitors of Firefly Luciferase; further: nearly all actives have a fitted effect of over 40% in size
# Settings: purified firefly luciferase, luminescence, 8 min; series mostly up to 57.1 µM; activity change, negative = inhibition: at the top concentration
# Procedure, shortened: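 Here, luciferase activity is measured as luminescence following an 8 min room-temperature reaction at 10 uM ATP, pH 7.2. Every library sample is titrated.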
# On the % scale 0 is the no-effect control and ±100 the full control effect; potency means the concentration at half of the fitted maximal effect; tags describe the fitted curve by direction and shape.
# Chain of UniProt P08659 (P08659 whole entry, looked up): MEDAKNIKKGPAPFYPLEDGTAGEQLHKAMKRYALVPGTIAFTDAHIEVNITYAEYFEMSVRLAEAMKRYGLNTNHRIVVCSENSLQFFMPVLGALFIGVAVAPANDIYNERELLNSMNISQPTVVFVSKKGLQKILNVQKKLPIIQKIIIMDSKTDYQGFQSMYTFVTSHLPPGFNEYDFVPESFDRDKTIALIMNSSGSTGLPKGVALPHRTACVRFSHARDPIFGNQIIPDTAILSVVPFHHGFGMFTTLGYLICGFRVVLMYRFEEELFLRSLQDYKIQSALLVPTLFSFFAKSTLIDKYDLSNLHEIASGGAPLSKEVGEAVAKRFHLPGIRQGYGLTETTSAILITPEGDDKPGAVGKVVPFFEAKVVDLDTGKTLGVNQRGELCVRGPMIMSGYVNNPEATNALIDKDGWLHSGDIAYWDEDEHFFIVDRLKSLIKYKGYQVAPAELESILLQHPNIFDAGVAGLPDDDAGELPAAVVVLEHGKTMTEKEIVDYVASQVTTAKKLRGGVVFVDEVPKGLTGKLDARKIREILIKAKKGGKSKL
SMILES,Potency,"activity change, negative = inhibition"
COc1ccc2nc(NC3=NCCC3)sc2c1,"inconclusive [inhibitor, single point]",–
CCN1CCCC1CN(Cc1cc2cc(C)cc(C)c2[nH]c1=O)C(=O)Nc1ccccc1OC (centres undefined),"inconclusive [inhibitor, full curve]",–
CC(C)[C@@H]1C(=O)N(S(C)(=O)=O)[C@H]2CCN(C(=O)/C=C\CN3CCCCC3)[C@@H]12,"inconclusive [inhibitor, single point]",–
N#Cc1cnc2sc3ccccc3n2c1=N,"inconclusive [inhibitor, single point]",–
CN(C)S(=O)(=O)c1ccc(NC(=O)c2ccccn2)cc1,"inconclusive [inhibitor, single point]",–
Cc1ccc(C(=O)c2cc(C)sc2NC(=O)CN2CCN(C(=O)c3ccco3)CC2)cc1,"inconclusive [inhibitor, single point]",–
Cc1ccc(OCC(=O)Nc2cccc(C)n2)c(C)c1,active: 15.8 µM,–
COc1ccc(OC)c([C@H](O)CNC(=O)CN)c1,–,inactive: 3.26% [at 25.5 µM]
Fc1cccc2sc(Nc3nnc(-c4ccccc4)o3)nc12,active: 12.6 µM,–
COc1cc(/C=c2\sc3nc(-c4ccncc4)nn3c2=O)ccc1OC(C)=O,active: 3.16 µM,–
CC(C)(C)NC(=O)C(c1ccncc1)N(C(=O)c1csnn1)C1CC1 (centres undefined),"inconclusive [inhibitor, single point]",–
COc1ccccc1NC(=O)c1oc2ccc(C)cc2c1C,active: 15.8 µM,–
Cc1[nH]c2ccccc2c1-c1nc2ccccc2[nH]1,"inconclusive [inhibitor, single point]",–
C[C@H]1[C@H](C)CC[C@@]2(C(=O)O)CC[C@]3(C)C(=CC[C@H]4[C@@]5(C)C[C@@H](O)[C@H](O)[C@@](C)(CO)[C@@H]5CC[C@@]43C)[C@@H]12,–,inactive: -3.81% [at 11.4 µM]
O=C1Cc2c([nH]c3ccc(Br)cc23)-c2ccccc2N1,"inconclusive [inhibitor, partial curve]",–
Nc1nc(-c2ccccc2)nc(-c2ccccc2O)n1,"inconclusive [inhibitor, single point]",–
CCN(CC)C(=O)C(C)N(C#N)c1nc(NC(C)C)nc(NC(C)C)n1 (centres undefined),–,inactive: 0.386%
COc1ccc(NC(=O)c2oc3ccccc3c2NC(=O)c2ccc3c(c2)OCO3)cc1,"inconclusive [inhibitor, full curve]",–
c1ccc(-n2ncc3c2ncn2nc(-c4ccco4)nc32)cc1,"inconclusive [inhibitor, full curve, poor fit]",–
O=C(CN1C(=O)C2CC=CCC2C1=O)Nc1nc2ccccc2[nH]1 (centres undefined),"inconclusive [inhibitor, full curve]",–
Cc1ccc2nc(Nc3ccc4[nH]c(=O)[nH]c4c3)c(-n3nc(C)cc3C)nc2c1,active: 3.98 µM,–
Cc1nc2c(ccc3nc(NC(=O)c4ccc(S(=O)(=O)N(C)C)cc4)sc32)s1,"inconclusive [inhibitor, full curve]",–

SMILES,Potency,"activity change, negative = inhibition"
COc1cccc(C2=NC(C)(C)NC(c3ccccc3O)C2)c1 (centres undefined),"inconclusive [inhibitor, partial curve]",–
COc1ccc(NC(=O)c2cc3ccccc3o2)cc1,active: 6.31 µM,–
COc1ccc2c(c1)CCc1c(C(=O)N3CCCC3)noc1-2,"inconclusive [inhibitor, partial curve]",–
CSc1ccc(/C=N/n2c(C)cc(C)cc2=O)cc1,"inconclusive [inhibitor, single point]",–
Cc1nonc1NC(=O)CSc1nc2cc(Cl)ccc2c2c1CCCC2,–,inactive: 1.74%
COc1ccc(C(=O)Nc2ccc(N3CCOCC3)cc2)cc1OC,"inconclusive [inhibitor, partial curve]",–
O=C(CSc1ncccc1-c1nc2ccccc2[nH]1)NCc1ccco1,"inconclusive [inhibitor, single point]",–
O=C(c1ccccc1)c1ccc(N2CCOCC2)c(F)c1,"inconclusive [inhibitor, single point]",–
O=C(NC1CCCC1)c1ccc2nc(-c3ccco3)c(-c3ccco3)nc2c1,"inconclusive [inhibitor, partial curve]",–
Cc1ccc(C(=O)Nc2cccc(C(=O)O)c2)cc1S(=O)(=O)N1CCCCC1,active: 12.6 µM,–
CC(C)Cn1nc(NS(=O)(=O)c2ccccc2)c2cc3ccccc3nc21,active: 6.31 µM,–
CC(=O)Nc1cc2nn(-c3ccccc3)nc2cc1Cl,"inconclusive [inhibitor, full curve, poor fit]",–
N#C[C@H](c1ccccc1)N1CCCN([C@@H](C#N)c2ccccc2)C1c1ccccc1O (some centres undefined),–,inactive: 2.2% [at 11.4 µM]
Cc1cccc(N2CCN(C(=O)Cn3sc4nc(C)cc(C)c4c3=O)CC2C)c1 (centres undefined),"inconclusive [inhibitor, partial curve]",–
CSc1ccccc1N=Cc1nc(-c2ccccc2)oc1O,"inconclusive [inhibitor, single point]",–
NCC[C@H](O)C(=O)N[C@H]1C[C@@H](N)[C@@H](O[C@H]2O[C@@H](CN)[C@@H](O)[C@@H](O)[C@@H]2O)[C@@H](O)[C@@H]1O[C@H]1O[C@@H](CO)[C@@H](O)[C@@H](N)[C@@H]1O,–,inactive: 4.31% [at 25.5 µM]
Cc1ccc(-c2cc(C(=O)N3CCOCC3)c3ccccc3n2)cc1,active: 12.6 µM,–
O=S(=O)(c1ccccc1)N1CCN(C2CCN(Cc3ccccc3)CC2)CC1,–,inactive: -2.12%
CN(C)CCCNc1cc(O)c2c(c1O)C(=O)c1ccccc1C2=O,–,inactive: -6.22% [at 11.4 µM]
O=C(CCCCCn1c(=S)[nH]c2cc3c(cc2c1=O)OCO3)N1CCN(C2CCCCC2)CC1,–,inactive: 2.63%
CC1(Cc2cn(CCC#N)c3ccccc23)OCCO1,–,inactive: 3.17%
c1ccc(C2=Nn3c(nnc3-c3cc(-c4ccccc4)n[nH]3)SC2)cc1,"inconclusive [inhibitor, single point]",–
